Laboratory results as given in paper PMC6212790.
Some of the results follow. At the low end of the ranking the order means little.
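Further: rank score from −0.5 (least bound) to 0.5 (best bound).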

What follows are sequences tested against T1, GST-Rok (full length) (UniProt O34857) (assay: protein binding microarray). Settings: Rok is a gene silencer of Bacillus subtilis; high values mean tight binding; most listed sequences are background and not binding sites; double strand, one strand shown.
T1 sequence: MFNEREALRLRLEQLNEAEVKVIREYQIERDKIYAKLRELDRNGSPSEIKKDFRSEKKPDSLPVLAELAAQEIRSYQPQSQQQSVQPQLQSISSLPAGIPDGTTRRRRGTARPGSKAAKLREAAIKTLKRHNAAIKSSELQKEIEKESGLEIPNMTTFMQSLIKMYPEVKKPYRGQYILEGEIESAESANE
For AAAGGGTC, the binding signal was -0.102 E-score. With GGTCGGAA the binding signal was -0.0909 E-score. GCCTGGAC showed a binding signal of -0.239 E-score. For CTACCCAA, the binding signal was 0.121 E-score. TACATCAA showed a binding signal of 0.151 E-score. AAGGATGT was tested, and the binding signal was -0.0292 E-score. CGGTCCAG was tested, and the binding signal was -0.167 E-score. Work on AGTCATGC yielded a binding signal of -0.144 E-score. Work on AGAATCAT yielded a binding signal of 0.221 E-score. With ATTCGCGC the binding signal was -0.0696 E-score. In the case of AGGGGGTG, the binding signal is reported as -0.405 E-score. Work on AGTCTTGG yielded a binding signal of -0.136 E-score. GATACTAC showed a binding signal of 0.278 E-score. For ATTCACTC, the binding signal was -0.0701 E-score. With GATTTGGC the binding signal was -0.0885 E-score. Sequence GTCGGGTA has a binding signal of -0.153 E-score. With CTATGGTA the binding signal was 0.258 E-score. For CCTGACCC, the binding signal was -0.381 E-score. For ATAAACAA, the binding signal was 0.0341 E-score. In the case of ACAGAGGT, the binding signal is reported as -0.0355 E-score. CCGTCCCA gave a binding signal of -0.185 E-score. Work on AATATCCA yielded a binding signal of 0.188 E-score. CTTGGTAC gave a binding signal of 0.0213 E-score. Work on TTAAAAAA yielded a binding signal of -0.246 E-score. For ATTAAGTC, the binding signal was 0.0423 E-score. GCGGTTCC was tested, and the binding signal was -0.0313 E-score. In the case of AGGAAGAC, the binding signal is reported as -0.105 E-score. GAGGCATA was tested, and the binding signal was -0.016 E-score. ATTGATAC was tested, and the binding signal was 0.209 E-score. Work on ACCACCAT yielded a binding signal of -0.124 E-score. GAAGCCTC gave a binding signal of -0.261 E-score. ACAGCGTG gave a binding signal of -0.0589 E-score. For GCTATTGA, the binding signal was 0.0987 E-score. For GGGCGTCA, the binding signal was -0.338 E-score. In the case of ATGTGAAT, the binding signal is reported as 0.0895 E-score. With TGGGTACA the binding signal was -0.0229 E-score. For AGAGTCTG, the binding signal was -0.16 E-score. ATAGGATG was tested, and the binding signal was 0.0848 E-score. Sequence AGACTTGC has a binding signal of -0.0491 E-score. CACCGCAC showed a binding signal of -0.2 E-score. Work on ACTTTACA yielded a binding signal of 0.171 E-score. In the case of AGGTCGTG, the binding signal is reported as -0.126 E-score. CTAGATAC was tested, and the binding signal was 0.22 E-score. For CCCTCATC, the binding signal was -0.243 E-score. For AATTGAGT, the binding signal was 0.14 E-score. CGCCAGGC gave a binding signal of -0.199 E-score. For ACTCACGG, the binding signal was 0.0232 E-score. In the case of GAGGCCCA, the binding signal is reported as -0.289 E-score. Work on GACCCACC yielded a binding signal of -0.11 E-score. Sequence ACGGTGAG has a binding signal of -0.0976 E-score. TAATCAGA showed a binding signal of 0.11 E-score. CGTTACAG gave a binding signal of 0.241 E-score. With CTTTAAGA the binding signal was -0.118 E-score. CAAACCAA gave a binding signal of -0.0424 E-score. CCTTATTC gave a binding signal of -0.0288 E-score. For CTTAGCGA, the binding signal was -0.0842 E-score. Work on AACGATAA yielded a binding signal of 0.185 E-score. With CACCTGGA the binding signal was -0.185 E-score. For GGTTTTAA, the binding signal was -0.14 E-score. Sequence CCGGGTCG has a binding signal of -0.28 E-score. AGCATGAG showed a binding signal of 0.0464 E-score. ATCGTGCA gave a binding signal of 0.0306 E-score. ATAGACAT gave a binding signal of 0.0125 E-score. For GAAAACCA, the binding signal was -0.118 E-score. CGCCATGA gave a binding signal of -0.187 E-score. With AACGTACG the binding signal was 0.135 E-score. Sequence AAGGCACG has a binding signal of -0.111 E-score. For TCAAACCA, the binding signal was -0.174 E-score. GGCGCATA showed a binding signal of -0.0605 E-score. With ACAACCAC the binding signal was -0.0199 E-score. For ATCGCCCC, the binding signal was -0.321 E-score. With GCACGTAC the binding signal was -0.0148 E-score. With CGATCGGA the binding signal was -0.038 E-score. ATTCAGAA gave a binding signal of -0.0273 E-score. ACCCAGCA was tested, and the binding signal was -0.126 E-score. Work on AGAAACAG yielded a binding signal of 0.216 E-score. TCCGCCGA was tested, and the binding signal was -0.178 E-score. CACCATCC showed a binding signal of -0.224 E-score. With CGAATACC the binding signal was 0.0161 E-score. In the case of ATAAAGCC, the binding signal is reported as -0.148 E-score. For TACCTATA, the binding signal was 0.37 E-score. GATAAGAC gave a binding signal of 0.119 E-score. Sequence GTCCGTTA has a binding signal of -0.0995 E-score. TACCGACA gave a binding signal of 0.223 E-score. With AGTCCTAC the binding signal was 0.0424 E-score. For ACTAATTA, the binding signal was 0.438 E-score.
